From PubChem BioAssay AID624417 (National Center for Advancing Translational Sciences (NCATS), 2012)
Screen size: about 410,000 compounds; about 6,400 (1.6%) were called active. The shares of active, inactive and inconclusive entries below differ from those in the screen. Calls come from the whole dose curve; as a rule, active = well fitted inhibition curve with a large enough effect; inconclusive = small, poorly fitted or top-dose-only effect; inactive = no such curve, though single readings can be large or run the other way. A potency beside an inconclusive call is a rough fit, not a confirmed value.

target: Glucagon-like peptide 1 receptor (Homo sapiens) (UniProt P43220); assay: qHTS of GLP-1 Receptor Inverse Agonists (Inhibition Mode); conditions: HEK293 GLP-1R CRE-luciferase, luminescence, 24 h, GLP-1R form is constitutively active; activity change, negative = inhibition: at 38.3 µM (top of the series) unless noted; note: nearly all actives have a fitted effect of over 55% in size
Summary of the method: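 Assay principle: reduced luminescence from a cAMP-responsive reporter in HEK293 cells co-expressing a constitutively active GLP-1R. Conditions: 24 hr compound incubation, 37 deg C, 5% CO2.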
% is set by controls: 0 for no effect and ±100 for the full control effect; potency is the fitted concentration of half-maximal effect; tags give direction and shape of the fitted curve.

Sequence of UniProt P43220 (P43220 whole entry, looked up): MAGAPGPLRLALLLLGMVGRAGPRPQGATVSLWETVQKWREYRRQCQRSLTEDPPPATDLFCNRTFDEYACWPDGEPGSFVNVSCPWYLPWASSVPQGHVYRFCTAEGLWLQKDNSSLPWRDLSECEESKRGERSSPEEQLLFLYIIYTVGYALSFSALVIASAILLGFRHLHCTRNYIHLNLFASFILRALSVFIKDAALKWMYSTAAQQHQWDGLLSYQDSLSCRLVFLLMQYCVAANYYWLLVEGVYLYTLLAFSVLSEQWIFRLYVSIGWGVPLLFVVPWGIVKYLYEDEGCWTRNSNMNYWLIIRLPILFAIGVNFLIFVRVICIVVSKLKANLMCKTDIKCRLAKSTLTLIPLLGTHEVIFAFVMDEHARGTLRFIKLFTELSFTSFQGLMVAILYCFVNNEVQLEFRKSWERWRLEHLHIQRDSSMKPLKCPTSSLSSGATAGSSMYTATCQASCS

Potency, inconclusive:
Cc1cccc(C(=O)NC2(C(F)(F)F)N=C(c3ccccc3)N(Cc3ccccc3)C2=O)c1 (stereo not drawn) 14.1 µM [inhibitor, single point]
Cc1c(CN2CCC(n3nccc3NC(=O)C3CC3)CC2)[nH]c2ccccc12 20 µM [inhibitor, partial curve, poor fit]
CCOC(=O)c1ccc(NC(=O)C2C3CCCCC32)cc1 (stereo not drawn) 12.6 µM [inhibitor, single point]
O=C(c1cc2c(s1)CCCC2)N1CCN(c2ccccc2)CC1 11.2 µM [inhibitor, single point]
CC1CCN(S(=O)(=O)c2cc(C(=O)Nc3ccccn3)ccc2Br)CC1 8.91 µM [inhibitor, partial curve, poor fit]
Cc1ccc(-c2nnn(CC(=O)N(Cc3ccco3)C(C(=O)NC(C)(C)C)c3cccs3)n2)o1 (stereo not drawn) 11.2 µM [inhibitor, partial curve, poor fit]
Cc1cc(NC(=O)C(Cl)c2ccccc2)no1 (stereo not drawn) 28.2 µM [inhibitor, single point]
C[C@@H]1CN(C(=O)c2cc(COc3cccc(C(F)(F)F)c3)on2)C[C@H](C)O1 10 µM [inhibitor, partial curve, poor fit]
Cc1onc(-c2ccccc2Cl)c1C(=O)N1CCc2ccccc21 10 µM [inhibitor, partial curve]
CCCCn1c(N)c(N(CC(C)C)C(=O)CSCc2ccc(Cl)c(Cl)c2)c(=O)[nH]c1=O 6.31 µM [inhibitor, partial curve, poor fit]
CC1CC(C)CN(C(=S)Nc2ccc3nc4n(c(=O)c3c2)CCCCC4)C1 (stereo not drawn) 11.2 µM [inhibitor, partial curve, poor fit]
COc1cccc(CNc2nc(-c3cccnc3)nc3ccccc23)c1 11.2 µM [inhibitor, single point]
COc1cc(Br)cc(/C=N/NC(=O)Cc2ccccc2)c1O 3.98 µM [inhibitor, full curve, poor fit]
C=CCC1C=CCC(CC=C)N1C(=O)c1ccccc1[N+](=O)[O-] (stereo not drawn) 31.6 µM [inhibitor, single point]
CC(=O)c1cn(CCOc2ccc(F)cc2)c2ccccc12 28.2 µM [inhibitor, single point]
Cc1[nH]n(-c2nc(-c3ccc(Cl)cc3)cs2)c(=O)c1N=Nc1ccc(O)cc1 12.6 µM [inhibitor, single point]
CCOC(=O)/C(C#N)=C\c1ccc(N2CCN(C/C=C/c3ccccc3)CC2)cc1 20 µM [inhibitor, single point]
Cc1oc2c(CN3CCOCC3)c(O)ccc2c(=O)c1-c1ccc(Br)cc1 10 µM [inhibitor, partial curve, poor fit]
Cc1noc(C)c1COc1ccc(C(=O)NNC(=O)c2ccccc2F)cc1 0.794 µM [inhibitor, full curve, poor fit]
COc1cc(Nc2nc(-c3ccccc3)c3cc(C)ccc3n2)cc(OC)c1OC 28.2 µM [inhibitor, single point]
CN(Cc1cn(C)nc1-c1ccc(Oc2ccccc2)cc1)CC1COCCO1 (stereo not drawn) 31.6 µM [inhibitor, single point]
COc1ccc(C2=NOC(C(=O)NCc3ccc(F)cc3)C2)cc1OC (stereo not drawn) 31.6 µM [inhibitor, single point]
COc1ccc(C)cc1NS(=O)(=O)c1ccc2c(c1)CCN2C(C)=O 1.12 µM [inhibitor, full curve, poor fit]
Cc1ccc(-c2nc3cc(C)c(Br)c(C)n3c2CC2CCCCC2)cc1 11.2 µM [inhibitor, partial curve, poor fit]
Cc1ccc(S(=O)(=O)NC2CC3CCC2C3)cc1 (stereo not drawn) 31.6 µM [inhibitor, single point]
O=C(NC(=S)Nc1cccc(O)c1)C12CC3CC(CC(C3)C1)C2 11.2 µM [inhibitor, partial curve, poor fit]
CC(C)(C)c1ccc(OCC(O)CN2CCc3ccccc3C2)cc1 (stereo not drawn) 10 µM [inhibitor, partial curve, poor fit]
O=C(Cn1nnc(-c2ccccc2Cl)n1)Nc1cccc(S(=O)(=O)N2CCCC2)c1 15.8 µM [inhibitor, partial curve, poor fit]
CN1CCN(c2ccc(NS(=O)(=O)c3ccc(Cl)cc3)cn2)CC1 10 µM [inhibitor, partial curve, poor fit]
COc1ccc(NC(=O)c2ccc(C)cc2)cc1 10 µM [inhibitor, partial curve]
Cc1cc(C)cc(OCC(=O)NCC2CCCO2)c1 (stereo not drawn) 28.2 µM [inhibitor, single point]
Cc1cc(C)c(S(=O)(=O)NCc2cccs2)cc1C 6.31 µM [inhibitor, partial curve]
Fc1ccc(/C=N/Nc2ccccn2)cc1 14.1 µM [inhibitor, partial curve, poor fit]
CCN(Cc1ccccc1)S(=O)(=O)c1ccccc1Br 10 µM [inhibitor, partial curve, poor fit]
O=C(NNc1nc2ccccc2nc1C(F)(F)F)c1ccccc1 28.2 µM [inhibitor, single point]
O=C(NCCc1ccccc1)c1cccc2c(-c3ccc(F)c(F)c3)coc12 14.1 µM [inhibitor, single point]
CCC1Oc2ccccc2N(CC(=O)NC2CCCCC2C)C1=O (stereo not drawn) 28.2 µM [inhibitor, single point]
COc1ccc2oc(=O)c(C(=O)NCCc3c(C)[nH]c4c(C)cccc34)cc2c1 10 µM [inhibitor, single point]
COc1ccc(S(=O)(=O)NN(C)c2ncc(C(F)(F)F)cc2Cl)cc1 11.2 µM [inhibitor, single point]
O=C(NCc1ccc2c(c1)OCO2)c1ccc(CN2CCc3ccccc3C2)cc1 10 µM [inhibitor, partial curve, poor fit]
CCC(C)c1ccc(NC(=O)Nc2cccnc2)cc1 (stereo not drawn) 28.2 µM [inhibitor, single point]
Cc1cc(C)c(C)c(S(=O)(=O)Nc2ccccc2C(=O)NCCCN2CCOCC2)c1C 11.2 µM [inhibitor, single point]
O=C(NCC1CCN(Cc2ccccc2F)CC1)C1CCCN(c2ncnc3c2nc2n3CCCCC2)C1 (stereo not drawn) 7.94 µM [inhibitor, partial curve, poor fit]
COc1cccc(N(C(=O)CCl)C(C(=O)NCCc2ccccc2)c2cccs2)c1 (stereo not drawn) 5.62 µM [inhibitor, full curve, poor fit]
CN1C[C@@H]2C(c3ccc(Cl)nc3)C3(c4ccccc4)CC2(C3)[C@H]1c1ccccc1 (stereo partly drawn) 12.6 µM [inhibitor, partial curve, poor fit]
O=C(O)CCCCCN1C(=O)/C(=C\c2cn(-c3ccccc3)nc2-c2cccs2)SC1=S 28.2 µM [inhibitor, single point]
O=C(N/N=C/c1ccc([N+](=O)[O-])o1)c1cc(-c2cccc(Br)c2)nc2ccccc12 6.31 µM [inhibitor, partial curve, poor fit]
Cc1c(C(=O)Nc2c(F)cccc2F)sc2ncnc(N3CCN(c4ccccc4)CC3)c12 28.2 µM [inhibitor, single point]
O=C(c1cc(C2CC2)nn1-c1ccccc1)N1CCN(S(=O)(=O)c2c(F)cccc2F)CC1 31.6 µM [inhibitor, single point]
O=C(NC1CCOC1)c1cc(COc2cccc(C(F)(F)F)c2)on1 (stereo not drawn) 28.2 µM [inhibitor, single point]
Cc1nn(C)cc1CN1CCCC(C(=O)c2ccc(-c3ccccc3)cc2)C1 (stereo not drawn) 10 µM [inhibitor, partial curve, poor fit]

Potency, active:
CCOC(=O)c1cnc(-n2nc(C)cc2C)nc1NCc1ccccc1 3.55 µM

Activity change, negative = inhibition, inactive:
Cc1nc2cc(C(=O)N3CCc4ccccc43)ccc2n1-c1ccc(F)c(F)c1 -23.7%
CCCN1C(=O)CC(c2ccc(OC)c(OC)c2)C1=O (stereo not drawn) 11.9%
O=C1c2ccccc2S(=O)(=O)N1CC1CC(c2ccccc2)=NO1 (stereo not drawn) 81.5%
CC(=O)c1ccc(NC(=O)c2cccc(NC(=O)N3CCSc4ncccc43)c2)cc1 2.43%
COC(=O)c1[nH]c2cccc(Cl)c2c1NC(=O)CN1CCN(CCO)CC1 -18.6%
Cc1cccc(NC(=O)C2CCC(CNS(=O)(=O)c3ccc4c(c3)CCCC(=O)N4)CC2)c1C (stereo not drawn) -0.135%
CCN1CCOC(=O)C1CC(=O)Nc1ccccc1C(F)(F)F (stereo not drawn) 8.84%
CCC1CCCCN1CCNC(=O)C1CCN(S(=O)(=O)c2cccc3nsnc23)CC1 (stereo not drawn) 1.74%
Cc1ccc(C)c(-n2sc3ccc(F)cc3c2=O)c1 -36.1%
O=C(O)CCC(=O)N1CCN(c2ccccn2)CC1 -0.266%
Cc1cc(C)n2nc(SCC(=O)N3CCC(C)CC3)nc2n1 27%
